Among all 46,000 compounds or so, about 60 (0.1%) were called active. Another 3% or so got no clear call; they are omitted. The call rests on the fitted dose curve; in most records, active means well fitted inhibition curve with a large enough effect; inconclusive means small, poorly fitted or top-dose-only effect; inactive means no such curve, though single readings can be large or run the other way. The list shows a part of the results.

The assay in a line: Primary qHTS assay for Inhibitors of ovarian cancer metastasis using an organotypic tumor microenvironment (TME) model. Further: nearly all actives have a fitted effect of over 65% in size.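 On activity change, negative = inhibition: plate controls were DMSO wells for no effect and tomatine positive control wells for full effect.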 Particulars: SKOV3ip1-GFP adhesion/invasion on 3D omental model, fluorescence; series mostly up to 45.8 µM; activity change, negative = inhibition: at the top concentration. In outline:
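qHTS, 4-pt dose (0.36-46 umol/L); SKOV3ip1-GFP, 1,200 cells/well, no FBS; primary omental fibroblast/mesothelial co-culture 48 h pre-grown; 2 h RT + 16 h 37 C; PBS wash, 4% PFA; GFP count 488/509 nm.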
Turning to `COc1nccc(-c2c(-c3ccc(F)cc3)ncn2C2CCNCC2)n1`, the “activity change, negative = inhibition” value is inactive: 18.6%.
Regarding `CN(C(=O)c1cc2nc(-c3ccc4c(c3)OCO4)cc(C(F)(F)F)n2n1)c1ccc(OC(F)(F)F)cc1`, the outcome was inactive.
In the case of `CCCSc1nc2sc3c(c2c(=O)n1-c1ccc(C)c(Cl)c1)CCN(C(C)=O)C3`, the “activity change, negative = inhibition” value is inactive: 5.22%.
As for `CNc1nc2c(c(=O)n(C)c(=O)n2C)n1CC(O)COc1ccc(OC)cc1` (centres undefined), the “activity change, negative = inhibition” value was inactive: -6.63%.
Same read-out and setting: the result for `COc1ccc(NS(=O)(=O)c2ccc(-n3cccn3)cc2)cc1OC` reads inactive: 6.27%; that for `Cc1cccc(-c2nnc(SCC(=O)N3CCCCC3)o2)c1`, inactive: 2.33%.
On to `O=C(Nc1ccccc1F)c1oc2ccccc2c1NC(=O)c1c(F)cccc1F`, for which the outcome was inactive.
Consider `CCn1c(=O)n(CC)c2cc(N3CCCC3)c(NC(=O)Nc3cc(C)cc(C)c3)cc21`, for which the “activity change, negative = inhibition” value was inactive: -13.6%.
The same measure, in the same setting: the result for `COc1ccccc1N1CCN(C(=O)c2ccc(Nc3nc4ccccc4n4nnnc34)cc2)CC1` reads inactive: -26.2%; that for `COc1ccc(S(=O)(=O)c2c(O)c(C)cc(NC(=O)c3ccccc3)c2C(C)C)cc1`, inactive: -27.2%.
For the compound `CSc1nnc2n(-c3cccc(C)c3)c(=O)c3c4c(sc3n12)CCCC4`, the compound was called inactive.
On the same count and under the same terms, the result for `CC(C)c1ccc(NC(=O)Cn2c3ncccc3c(=O)n2-c2ccccc2)cc1` reads “inactive”; that for `CCOc1ccc(-c2nnc(SCC(=O)Nc3cc(C)ccc3OC)o2)cc1`, “inactive”.
Still for that read-out and setting: under `N#Cc1cccc(NC(=O)C2CCN(c3nc(-c4ccc(Cl)cc4)no3)CC2)c1` stands “inactive”.
Still for that read-out and setting: under `COC(=O)c1ccccc1NC(=O)c1ccc(=O)n(Cc2cccc(C)c2)c1` stands “inactive”.
In the case of `Cc1ccc(CCNC(=O)CSCc2nc(-c3ccc(C)cc3)oc2C)cc1`, the “activity change, negative = inhibition” value was inactive: -6.84%.
As for `Cc1ccc(CNC(=O)c2nn(C)c3c2CSc2ccc(C)cc2-3)cc1`, the “activity change, negative = inhibition” value is inactive: 11.8%.
Same read-out and setting: under `Cc1c(C(=O)Nc2cccc(-c3nc4ccccc4s3)c2)oc2ccc(F)cc12` stands inactive: -8.96%.
The same measure, in the same setting: under `CCn1c(CN2CCCCC2)nc2cc(NC(=O)c3cccc([N+](=O)[O-])c3)ccc21` stands inactive: 0.122%; under `COc1cc(-c2nc(C(N)=O)c3c(n2)n(-c2cccc(C)c2)c(=O)n3C)cc(OC)c1OC`, inactive: 27.2%; under `Cc1ccc(NC(=O)Cn2c(=O)n(Cc3nc(C)no3)c(=O)c3cc4c(cc32)OCO4)cc1`, inactive: 8.75%.
On to `Cc1cc(NS(=O)(=O)c2ccc3oc(=O)c4ncn(C)c4c3c2)ccc1Br`, for which the compound was classed as inactive.
For the compound `CC(C)c1ccc(N2C(=O)CSC23C(=O)N(Cc2ccccc2)c2ccccc23)cc1` (centres undefined), the call was inactive.
For the compound `COc1cc2c(Oc3ccc4[nH]c(C)cc4c3F)ncnc2cc1OCCCN1CCCC1`, the “activity change, negative = inhibition” value is inactive: 8.34%.
Regarding `O=C(Cn1cc(SCc2c(F)cccc2Cl)c2ccccc21)N1CCCC1`, the call was inactive.
On the same count and under the same terms, under `COc1cccc(CNC(=O)C(C)n2c(=O)cc(-c3ccccc3)c3c(C)nn(C)c32)c1` (centres undefined) stands “inactive”; under `Cc1nc2ccn(Cc3ccco3)c(=O)c2cc1C(=O)N1CCN(c2ccc(F)cc2)CC1`, “inactive”.
Turning to `COc1ccc(NC(=O)N2CCN(S(=O)(=O)c3ccc4c(ccn4C)c3)CC2)c(OC)c1`, the “activity change, negative = inhibition” value is inactive: -20.1%.
For the compound `O=C(/C=C/c1ccccc1Cl)Nc1nc(-c2cccs2)ns1`, the call was inactive.
For the compound `CN(Cc1ccccc1)C(=O)CSc1nc(-c2ccc(F)cc2)cc(C(F)(F)F)n1`, the “activity change, negative = inhibition” value was inactive: -0.459%.
As to `CCc1ccccc1NC(=O)Cn1c(=O)n(Cc2ccc(OC)cc2)c(=O)c2oc3ccccc3c21`, the call was inactive.
Regarding `CCOc1ccc(CC(=O)Nc2c(C(=O)c3ccccc3)oc3ccc(OC)cc23)cc1OCC`, the “activity change, negative = inhibition” value is inactive: -5.65%.
For the compound `COCCOC(=O)c1c(-c2ccccc2)c(-c2ccccc2)nn(C)c1=O`, the “activity change, negative = inhibition” value was inactive: -6.43%.
Same read-out and setting: the result for `Cc1ccc(/C=C(\C#N)c2nc3ccccc3c(=O)[nH]2)cc1` reads inactive: 5.3%.
For the compound `O=C(Nc1nnc(S(=O)(=O)N2CCc3ccccc32)s1)c1cccc(Cl)c1`, the “activity change, negative = inhibition” value is inactive: 6.01%.
Take `CCCC(CCC)C(=O)NC1CC(=O)N(c2ccc3c(c2)OCCO3)C1` (centres undefined): the “activity change, negative = inhibition” value is inactive: -10.2%.
Still for that read-out and setting: under `COc1ccc(Cc2nc3ccc(C(=O)NCc4ccccc4Cl)cc3o2)cc1` stands inactive: -8.53%; under `O=C1OC(C(=O)Nc2cc(C(F)(F)F)ccc2Cl)Cc2ccccc21` (centres undefined), inactive: 10.7%.
For `Cc1ccc(C)c(N2CCN(C(=O)c3cnn(-c4ccccc4Cl)c3C3CCN(C(=O)OC(C)(C)C)CC3)CC2)c1`, the “activity change, negative = inhibition” value was inactive: -1.58%.
Regarding `O=C(CSc1nc(-c2ccc(F)cc2)[nH]c1-c1ccc(F)cc1)Nc1ccc2c(c1)OCCO2`, the “activity change, negative = inhibition” value was inactive: -16.8%.
In the case of `CCOC(=O)c1c(C)c(-c2ccccc2)n(CC(=O)NC(CC)Cc2ccccc2)c1C` (centres undefined), the compound was called inactive.
For the compound `CCN(CC)c1ccc(NC(=O)C2CCN(S(=O)(=O)c3cnc[nH]3)CC2)c(C)c1`, the “activity change, negative = inhibition” value was inactive: -11%.
Turning to `Cc1ccc(NC(=O)C2CC(=O)N(c3ccc(OC(C)C)cc3)C2)cc1` (centres undefined), the outcome was inactive.
As for `CCOc1ccc(CC(=O)NCC(c2cccs2)S(=O)(=O)c2ccc(F)c(C)c2)cc1` (centres undefined), the “activity change, negative = inhibition” value was inactive: 1.99%.
For `O=C(COc1ccc(Cl)cc1)Nc1ccccc1OCc1cc(=O)n2ccccc2n1`, the “activity change, negative = inhibition” value was inactive: 4.8%.
Same read-out and setting: the result for `COc1ccc(S(=O)(=O)NCC(c2ccc(N(C)C)cc2)N2CCc3ccccc32)cc1OC` (centres undefined) reads inactive: -24.9%.
Turning to `CCc1ccccc1N(C)C(=O)c1ccc2c(=O)n3c(nc2c1)CCCCC3`, the call was inactive.
With `COc1ccccc1N1CCN(C(=O)c2cnn(-c3ccc(F)cc3F)c2C2CCNCC2)CC1`, the “activity change, negative = inhibition” value was inactive: 20.2%.
Still for that read-out and setting: under `COc1cccc2c1C(=O)c1c(O)c3c(c(O)c1C2=O)C[C@@](O)(C(=O)CO)C[C@@H]3O[C@H]1C[C@H](N)[C@H](OC2CCCCO2)[C@H](C)O1` (some centres undefined) stands inactive: -1.73%.
For the compound `Cc1ccc(Nc2nnc(-c3ccc(C)c(S(N)(=O)=O)c3)c3ccccc23)cc1`, the “activity change, negative = inhibition” value was inactive: -24.6%.
Same read-out and setting: the result for `COc1cccc(C(=O)Nc2ccc3oc(-c4cccc5c(Br)cccc45)nc3c2)c1` reads inactive: -26.8%.
In the case of `CCCOc1ccc(C2C(=O)N(C3CCCCCC3)CC(=O)N2CCC)cc1OC` (centres undefined), the compound was called inactive.
With `CN(C)S(=O)(=O)c1ccc(C(=O)NCCSc2c(-c3ccc(Cl)cc3)[nH]c3ccccc23)cc1`, the “activity change, negative = inhibition” value is inactive: -2.68%.
Still for that read-out and setting: the result for `COc1ccc(N2CCN(C(=O)CCc3c(C)nc4cc(-c5ccc(OC)cc5OC)nn4c3C)CC2)cc1` reads inactive: 26%; that for `CCOC(=O)c1c(NC(=O)c2ccccc2OCC)sc2c1CCC(CC)C2` (centres undefined), inactive: 22.4%; that for `Cc1cccc(OCC(=O)Nc2cccc3cccnc23)c1C`, inactive: -3.93%.
The same measure, in the same setting: the result for `O=C(c1ccc2c(c1)CCN2S(=O)(=O)c1ccc(Cl)cc1)N1CCN(c2ccc(F)cc2)CC1` reads inactive: -1.93%; that for `CCOc1ccc(NC(=O)NCc2cccn2Cc2ccccc2)cc1`, inactive: 7.63%; that for `Cc1cccc(C)c1-n1ncc(C(=O)NC2CCCC2)c1C1CCN(C(=O)OC(C)(C)C)CC1`, inactive: 9.75%.
`Cc1ccc2c(c1)C(=O)OC(C(=O)Nc1ncc(Cc3ccc(Cl)cc3)s1)C2` (centres undefined): the outcome was inactive.
In the case of `Cc1c(C(=O)OC2CCCCCC2)[nH]c2c1C(=O)CC(c1ccc(Cl)cc1)C2` (centres undefined), the “activity change, negative = inhibition” value is inactive: 4.53%.
Turning to `O=S(=O)(O)c1ccc2cc(N=Nc3cc(S(=O)(=O)O)c4cccnc4c3O)ccc2c1`, the “activity change, negative = inhibition” value is inactive: -13.6%.
On to `Cc1nnc(N2C(=O)c3oc4ccccc4c(=O)c3C2c2ccc(Cl)cc2)s1` (centres undefined), for which the “activity change, negative = inhibition” value is inactive: 8.73%.
Regarding `O=C(COc1ccc(Cl)cc1Cl)Nc1cccc2cccnc12`, the outcome was inactive.
As for `CC(=O)N1CCC(N(Cc2ccco2)C(=O)Nc2ccc(C)c(Cl)c2)CC1`, the “activity change, negative = inhibition” value was inactive: -8.41%.
The same measure, in the same setting: the result for `Cc1ccc2[nH]c3c(=O)n(CC(=O)N(CCN(C)C)Cc4ccccc4)ncc3c2c1` reads inactive: -15%.
On the same count and under the same terms, the result for `Cc1ccc2oc(-c3ccc(C)c(NC(=O)/C=C/c4ccc(Cl)cc4)c3)nc2c1` reads inactive: -6.55%.
The same measure, in the same setting: the result for `Cc1cc(C)cc(NC(=O)Cn2cc(C(=O)c3cccs3)c3ccccc32)c1` reads inactive: 3.82%.
As for `COc1ccc(Nc2c(-c3ccc(C)o3)nc3cc(C)ccn23)cc1`, the “activity change, negative = inhibition” value was inactive: 15.9%.
`Cc1ccc(CNC(=O)c2ccc(CN3CC(=O)N4CCCCC4C3=O)cc2)cc1` (centres undefined): the outcome was inactive.
For `CCOc1ccc(N2CC(NC(=O)C3CCCCC3)CC2=O)cc1` (centres undefined), the “activity change, negative = inhibition” value was inactive: 9.67%.
As for `COc1cc(NC(=O)c2nc3nc(C)cc(C(F)F)n3n2)c(OC)cc1Cl`, the compound was classed as inactive.
With `CCOC(=O)CNC(=O)N1[C@H](c2cccs2)[C@@H](C)C(=O)[C@@H](C)[C@@H]1c1cccs1`, the “activity change, negative = inhibition” value was inactive: 2.7%.
Same read-out and setting: under `CC(C)(C)c1nc2c3cc[nH]c(=O)c3c3cc(F)ccc3c2[nH]1` stands inactive: 4.8%.
Same read-out and setting: the result for `COc1ccc2c(c1)c(=O)c(C(=O)c1ccc(F)cc1)cn2CC(=O)Nc1ccc2c(c1)OCO2` reads inactive: 4.31%.
Regarding `COc1ccc(S(=O)(=O)N2CCN(c3cccc(C)c3C)CC2)c2ccccc12`, the compound was classed as inactive.
For the compound `CCc1c(C)nc2nncn2c1NCc1ccccc1`, the “activity change, negative = inhibition” value was inactive: 9.84%.
The same measure, in the same setting: under `O=S1(=O)c2ccccc2N(Cc2ccc(Cl)cc2)c2ccccc21` stands inactive: -0.155%; under `CCc1nnc(NC(=O)c2nc(SCc3ccccc3F)ncc2Cl)s1`, inactive: 4.39%.
With `CCCCOc1ccc(Cn2c(=O)oc3ccc(C)cc32)cc1OC`, the call was inactive.
For the compound `Cc1cc(Br)ccc1NC(=O)c1sc2nc3n(c(=O)c2c1C)CCCC3`, the “activity change, negative = inhibition” value is inactive: -9.27%.
For the compound `CC(C)CCNC(=O)Cn1c(-c2cccs2)cc2cc(F)ccc21`, the “activity change, negative = inhibition” value is inactive: -1.38%.
The same measure, in the same setting: the result for `Cc1ccc(NC(=O)C2CCN(c3nnc(C)c4c(C)n(-c5ccccc5)nc34)CC2)c(Cl)c1` reads inactive: 4.07%; that for `COc1ccc(Cl)cc1C(=O)Nc1nnc2n1CCS2`, inactive: -16.4%.
Same read-out and setting: the result for `Cc1ccc(S(=O)(=O)N(CC(=O)NCCSc2ccc(Cl)cc2)c2ccccc2C)cc1` reads inactive: -3.13%; that for `O=C(CCCCCn1c(=O)c2sccc2n(Cc2ccc(Cl)cc2)c1=O)NCc1ccc2c(c1)OCO2`, inactive: 17.3%.
In the case of `CCN(Cc1ccccc1)Cc1c(O)ccc2oc(C)c(C(=O)Nc3ccc(C)cc3C)c12`, the call was inactive.
On the same count and under the same terms, the result for `COCCCNC(=O)CCn1c(=O)c2ccccc2n(CC(=O)Nc2cc(Cl)ccc2OC)c1=O` reads “inactive”; that for `O=C(NCCc1ccc(Cl)cc1)c1ccc2c(c1)N(Cc1ccc(Cl)cc1)C(=O)CS2`, “inactive”; that for `C=Cc1ccc(Cn2c(=O)n(-c3cccc(Cl)c3)c(=O)c3c4c(sc32)CN(C(C)=O)CC4)cc1`, “inactive”.
Regarding `CC(C)c1ccc(NC(=O)N2c3ccccc3Sc3ccccc32)cc1`, the “activity change, negative = inhibition” value is inactive: 1.22%.
As to `Cc1cc(C)c(NC(=O)Cn2nnc(S(=O)(=O)c3ccc(C)c(C)c3)c2N)c(C)c1`, the “activity change, negative = inhibition” value was inactive: 9.26%.
As for `COc1ccc(-c2cc(C(=O)N3CCN(c4ccccc4)CC3)no2)cc1`, the “activity change, negative = inhibition” value was inactive: -29.4%.
Still for that read-out and setting: under `Cc1cccc(N2CCn3c2nc2c3c(=O)n(C/C=C/c3ccccc3)c(=O)n2C)c1` stands inactive: 11.6%.

The values are drawn from PubChem BioAssay AID1963576 (National Center for Advancing Translational Sciences (NCATS), 2024).
